# Results published in publication PMC12434519 (ACS Medicinal Chemistry Letters, 2025).
# Where two headings read alike, the source gives them in different places.
# Target: SARS-CoV-2 NSP14 (Severe acute respiratory syndrome coronavirus 2, UniProt P0DTD1)
# Assay: biochemical
# [1] = Hill slope of the concentration-response fit
# [2] = maximum response, LUM % inhibition, read-out: SARS-CoV-2 NSP14 inhibition: Maximum response (%)
# [3] = read-out: SARS-CoV-2 NSP14 inhibition: IC50
# [4] = LUM % inhibition, read-out: SARS-CoV-2 NSP14 inhibition: IC50
# [5] = LUM % inhibition, read-out: SARS-CoV-2 NSP14 inhibition: Maximum response
# [6] = fit of concentration-response curve
# [7] = TDI-015051 series, retrospective VS set, biochemical MTase assay, read-out: Merged IC50
SMILES,IC50 [4],Emax [5],SARS-CoV-2 NSP14 inhibition: Hill slope [6],other results
Cn1c(CNc2cccc(C(=O)NCc3cccc4cccnc34)c2)nnc1-c1ccncn1 [RU-0833656],–,–,–,SARS-CoV-2 NSP14 inhibition: Hill slope [1]: 1.1; Emax [2]: 9.23%; IC50 [3]: > 62.5 µM
COc1cccn2ncc(C(=O)NC[C@@H]3C[C@H]3CNC(=O)c3ccc(C)c(C)c3)c12 [RU-0833943],> 125 µM,7.75%,2.12,–
Cc1nccc(CCC(=O)NCCC2(C)CCN(C(=O)c3cc(C)c4[nH]ncc4c3)C2)n1 (stereo not drawn) [RU-0834198],–,16.8%,14.7,"IC50 (SARS-CoV-2 NSP14 inhibition: IC50, LUM % inhibition): > 125 µM"
Cc1cc(C(=O)N2CCC3(CC(NC(=O)c4c(F)cccc4F)CO3)C2)cc2cn[nH]c12 (stereo not drawn) [RU-0834091],> 125 µM,10.2%,18.4,–
Cc1cc(C(=O)NCC2(C)CCC(NC(=O)c3n[nH]c4cccnc34)C2)cc2cn[nH]c12 (stereo not drawn) [RU-0834188],25.3 µM,29.9%,0.824,–
"Cc1c(S(=O)(=O)n2ncc3ccccc32)cc(C(=O)NCc2c(F)ccc3occc23)n1C [TDI-015687, Cc1c(S(=O)(=O)n2ncc3ccccc32)cc(C(=O)NCc2c(F)ccc3occc23)n1C]",–,–,–,IC50 [7]: 0.958 µM
Cc1cc(C(=O)NC2CCC3(CC2)CC(NC(=O)c2cnn4ccn(C)c24)C3)cc(C)c1O (stereo not drawn) [RU-0834180],> 125 µM,14.1%,12.9,–
"O=C(NCc1c(F)ccc2cnn(C3CC3)c12)c1ccc(Cl)c(S(=O)(=O)N2CCc3[nH]ncc3C2)c1 [TDI-016152, O=C(NCc1c(F)ccc2cnn(C3CC3)c12)c1ccc(Cl)c(S(=O)(=O)N2CCc3[nH]ncc3C2)c1]",–,–,–,IC50 [7]: 0.000249 µM
CC1(CNC(=O)c2ccc3[nH]ncc3c2)CCC(NC(=O)c2ncn3ccccc23)C1 (stereo not drawn) [RU-0834149],> 125 µM,14.2%,43.2,–
CCc1nnc(-c2cccc(NC(=O)CCn3c(=O)n(C)c4ccccc43)c2)o1 [RU-0833629],–,–,–,SARS-CoV-2 NSP14 inhibition: Hill slope [1]: 20.1; Emax [2]: -0.0216%; IC50 [3]: > 62.5 µM
C[C@@H](NC(=O)c1cccc(S(=O)(=O)N(C)c2cccc(Cl)c2)c1)c1ccncc1 [RU-0833642],–,–,–,SARS-CoV-2 NSP14 inhibition: Hill slope [1]: 9.92; Emax [2]: 0.45%; IC50 [3]: > 62.5 µM
Cc1cc(C(=O)NC[C@@H]2[C@H](CNC(=O)Cc3ccc4c(c3)CC4)C2(F)F)cc(C)c1O [RU-0834163],> 125 µM,34.8%,0.497,–
Cc1ccc(NS(=O)(=O)c2ccc3c(c2)OCCO3)cc1S(=O)(=O)Nc1ccc(F)cc1 [RU-0833658],–,–,–,SARS-CoV-2 NSP14 inhibition: Hill slope [1]: 68.1; Emax [2]: 5.49%; IC50 [3]: > 62.5 µM
O=C(CN1NC(=CCn2c(=O)oc3ccccc32)C=CC1=O)Nc1ccccc1F [RU-0833870],–,–,–,SARS-CoV-2 NSP14 inhibition: Hill slope [1]: 208; Emax [2]: 21.7%; IC50 [3]: > 125 µM
Cc1cc(O)cc(C)c1C(=O)NCc1ccc(CNC(=O)c2ccc3cncn3c2)cc1 [RU-0834186],25.5 µM,39.3%,0.999,–
Cc1cc(C(=O)N2CC3(CCC(CNC(=O)c4n[nH]c5ccccc45)O3)C2)cc2cn[nH]c12 (stereo not drawn) [RU-0834175],21.6 µM,64.7%,0.895,–
CN(c1cccc(Cl)c1)S(=O)(=O)c1cccc(C(=O)NCc2ccncc2)c1 [RU-0833872],> 125 µM,15.3%,38.1,–
Cc1cccc(S(=O)(=O)c2ccc(=O)n(CC(=O)NCCc3ccc(Cl)cc3)n2)c1 [RU-0833885],13.9 µM,78.9%,2.97,–
Cc1ccc(-c2noc(C(=O)N3CCCCC3)n2)cc1S(=O)(=O)Nc1ccc(F)cc1Cl [RU-0833886],> 125 µM,14%,105,–
"Cc1c(C(=O)NCc2c(F)ccc3occc23)cn(S(=O)(=O)c2ccc3[nH]ncc3c2)c1C [TDI-015820, Cc1c(C(=O)NCc2c(F)ccc3occc23)cn(S(=O)(=O)c2ccc3[nH]ncc3c2)c1C]",–,–,–,IC50 [7]: 0.0307 µM
CN(c1ccccc1)S(=O)(=O)c1cccc(NC(=O)Cn2c(=O)cnc3ccccc32)c1 [RU-0833927],> 125 µM,14%,511,–
O=C(NCc1ccc(C(=O)NCc2ccccc2Cl)nc1)c1ccnc(CO)c1 [RU-0834126],> 125 µM,16.7%,1.59,–
O=C(Cc1ccc2c(c1)CCC2)Nc1cccc(S(=O)(=O)N2CCCC2)c1 [RU-0833897],> 125 µM,6.86%,12,–
"Cc1c(S(=O)(=O)N2CCn3cncc3C2)cc(C(=O)NCc2c(F)cccc2N2CCCC2)n1C [TDI-014802, Cc1c(S(=O)(=O)N2CCn3cncc3C2)cc(C(=O)NCc2c(F)cccc2N2CCCC2)n1C]",–,–,–,IC50 [7]: 0.000858 µM
O=C(NCc1ccc(C(=O)NC2CC2C2CCCC2)cc1)c1ccc(O)c(F)c1 (stereo not drawn) [RU-0834120],> 125 µM,15.8%,13.8,–

SMILES,IC50 [4],Emax [5],SARS-CoV-2 NSP14 inhibition: Hill slope [6],other results
"O=C(NCc1cccnc1N1CCCC1)c1cccc(S(=O)(=O)N2CCn3cccc3C2)c1 [TDI-014245, O=C(NCc1cccnc1N1CCCC1)c1cccc(S(=O)(=O)N2CCn3cccc3C2)c1]",–,–,–,IC50 [7]: 0.393 µM
Cc1cc(C(=O)N[C@@H]2CC[C@H](CNC(=O)c3ncc4ccccn34)C2)ccc1O [RU-0834154],16.3 µM,29.3%,0.948,–
O=C(NCc1ccc(C(=O)NCc2nnc3n2CCC3)nc1)c1ccc2nccn2c1 [RU-0834143],> 125 µM,10.5%,13.1,–
O=C(Cn1cnc2ccccc2c1=O)Nc1cccc(S(=O)(=O)C2CCCC2)c1 [RU-0833908],> 125 µM,13.4%,0.0894,–
CN(C1CCCCC1)S(=O)(=O)c1cccc(C(=O)NCc2cn3ccccc3n2)c1 [RU-0833871],–,–,–,SARS-CoV-2 NSP14 inhibition: Hill slope [1]: 0.058; Emax [2]: 18%; IC50 [3]: > 125 µM
Cc1cc(C(=O)N2CC3(CCC(CNC(=O)C4CCCn5nccc54)O3)C2)cc(C)c1O (stereo not drawn) [RU-0834192],> 125 µM,14.6%,16.3,–
COc1ccc(C(=O)NCc2nnc3ccccn23)cc1S(=O)(=O)NCc1ccc(Cl)cc1 [RU-0833666],–,–,–,SARS-CoV-2 NSP14 inhibition: Hill slope [1]: 9.74; Emax [2]: 1.7%; IC50 [3]: > 62.5 µM
"Cc1c(S(=O)(=O)N2CCn3nccc3C2)cc(C(=O)NCc2cccnc2N2CCCC2)n1C [TDI-013801, Cc1c(S(=O)(=O)N2CCn3nccc3C2)cc(C(=O)NCc2cccnc2N2CCCC2)n1C]",–,–,–,IC50 [7]: 0.00795 µM
Cc1cc(CC(=O)N2CCC(O)(C(C)CNC(=O)Cc3c(C)cccc3F)C2)ccc1O (stereo not drawn) [RU-0834196],> 125 µM,10.7%,174,–
O=C(NCc1ccccc1CNC(=O)c1ncnc2[nH]ccc12)c1cccc(Br)c1F [RU-0833942],25.1 µM,69.3%,1.33,–
CC(NC(=O)c1cnc2[nH]ncc2c1)C1CC(NC(=O)c2c(F)cc(O)cc2F)C1 (stereo not drawn) [RU-0834147],> 125 µM,14.6%,47.7,–
C[C@@H](NC(=O)c1cccc(NC(=O)c2cccnc2)c1)c1ccc(C(F)(F)F)cc1 [RU-0833653],–,–,–,SARS-CoV-2 NSP14 inhibition: Hill slope [1]: 0.711; Emax [2]: 38.2%; IC50 [3]: > 62.5 µM
COc1ccccc1NS(=O)(=O)c1cc(C(=O)NCCc2ccc(OC)c(OC)c2)ccc1C [RU-0833932],> 125 µM,31.5%,0.596,–
Cc1cc(F)ccc1C(=O)NCC1CC2(CO1)CN(C(=O)c1cc(C)c3[nH]ncc3c1)C2 (stereo not drawn) [RU-0834089],> 125 µM,16.6%,1.51,–
"Cc1c(S(=N)(=O)c2ccccc2)cc(C(=O)NCc2cccc3cnn(C)c23)n1C (stereo not drawn) [TDI-015861, Cc1c(S(=N)(=O)c2ccccc2)cc(C(=O)NCc2cccc3cnn(C)c23)n1C]",–,–,–,"IC50 [7]: 0.176 µM; IC50 (TDI-015051 series, retrospective VS set, biochemical MTase assay, read-out: Merged pIC50 (converted)): 0.174 µM"
Cc1cc(C(=O)N[C@H]2C[C@@H](O)[C@@H]2CC(=O)NCc2cccc(C)c2F)ccc1O [RU-0834166],> 125 µM,21.7%,1.26,–
Cc1cc(F)cc(CC(=O)NCC2COC(CNC(=O)c3cccc4c3ncn4C)C2)c1 (stereo not drawn) [RU-0834117],> 125 µM,10.3%,49.4,–
O=C(CNc1ccc(Br)cc1)Nc1cccc(S(=O)(=O)N2CCCCCC2)c1 [RU-0833935],> 125 µM,5.39%,19,–
Cc1ccc(F)cc1C(=O)NCC(C)C1(O)CCN(C(=O)c2cc(C)c3[nH]ncc3c2)C1 (stereo not drawn) [RU-0834172],> 125 µM,11.6%,18.1,–
Cc1cnc(C(=O)NCc2ccc(CCNC(=O)c3ccc4cncn4c3C)cc2)c(F)c1 [RU-0834176],18.8 µM,76.8%,0.909,–
CNC(=O)c1cccc(NC(=O)CCCn2c(=O)oc3ccccc32)c1 [RU-0833645],–,–,–,SARS-CoV-2 NSP14 inhibition: Hill slope [1]: 0.635; Emax [2]: 5.94%; IC50 [3]: > 62.5 µM
COc1ccc(F)c(C(=O)NC(C)c2cccc(NC(=O)c3ccccc3)c2)c1OC (stereo not drawn) [RU-0833919],> 125 µM,13.5%,1.06,–
O=C(Cc1c[nH]c2nccc(Cl)c12)NCc1ccccc1-n1cc(CN2CCCC2=O)nn1 [RU-0833679],–,–,–,SARS-CoV-2 NSP14 inhibition: Hill slope [1]: 27.2; Emax [2]: -0.0529%; IC50 [3]: > 62.5 µM
"COc1ccccc1CNC(=O)c1cc(S(=O)(=O)N2CCc3ccccc3C2)c(C)n1C [TDI-013289, COc1ccccc1CNC(=O)c1cc(S(=O)(=O)N2CCc3ccccc3C2)c(C)n1C]",–,–,–,IC50 [7]: 0.0141 µM
